Assay results taken from the supplement of paper PMC3334620.
In all, about 33,000 sequences were measured (“E-score (-0.5 to 0.5)”: median about -0.016, highest 2% from about 0.31 on). The list shows a part of the results.

What follows are sequences tested against Cst6 (UniProt P40535) (assay: PBM E-score (8-mer binding enrichment) (E-score (-0.5 to 0.5)); higher = stronger / more preferred TF binding; most listed sequences are background and not binding sites). Details: protein concentration: 200 nM; construct: GST-DNA-binding domain.
Method in brief: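 Universal all-10-mer Agilent arrays, fresh or stripped once, were converted to double-stranded form by primer extension. GST-tagged yeast transcription factors from PURExpress in vitro transcription/translation, full-length or DNA-binding domain only, were applied at about 100-200 nM and detected with fluorescent anti-GST. After masliner normalisation, the Universal PBM Analysis Suite scored each ungapped eight-base word together with its reverse complement by E-score.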

Sequence	PBM E-score
AAAGCACG	-0.0595
CACCCCCA	-0.242
AAGACCTG	-0.183
AAAGCGAG	-0.0116
CTAGCTGA	0.00129
AGTTATCC	0.00913
TGCGGGAA	0.00486
GCTCAACC	-0.198
GAAATTGA	0.153
AGTAAGAA	0.225
AAGAGAAA	0.0634
ACGTGTCC	-0.199
TATGCATA	0.0156
CTCAGAGA	-0.0636
TGGTTAAA	0.0964
ACTTTCCA	0.134
CATTTAGA	0.136
GGGATTAC	0.114
GTCATCCA	0.383
ATTCGGCC	-0.161
AATGGCCG	-0.144
ATATCGTG	0.0561
AAGGAACA	0.00613
GAAGTGCC	0.0369
CGCACATC	0.0231

Sequence	PBM E-score
CTCTCGTC	0.0334
CTCACGGA	-0.0452
ATTGGGAC	0.00586
ACACTGCC	0.0738
ACAGAGGG	-0.272
ATTGTATC	0.145
ATCAACCG	-0.093
CCCCAGGC	-0.362
ATAATTAT	0.342
CCTCTACC	-0.229
ACCTTTCT	0.0152
ATAAATGC	0.161
CTTGTGCC	0.0039
GTGAATAA	0.293
ATGCTTTG	0.0423
AGGACCCT	-0.321
CGTAAAAA	0.228
AGACACAA	0.149
AAGCAAAC	0.0375
AGTTTTCA	0.0851
AAGCTTCT	-0.0653
AGGATGGG	-0.303
ATAGTGTA	0.211
GGGATACC	-0.314
CACAAGAA	0.226

Sequence	PBM E-score
GATACCAC	0.0181
ACGAGCTC	-0.14
TGTCTGAA	0.0411
ACGCGAGT	0.0367
GGTCGACA	-0.27
CATAGCAG	-0.162
AGATATAG	0.137
AGGTCTAG	-0.24
AGCAAGGG	-0.151
GAGCCGGA	-0.158
AAAGAACG	0.0442
CTTTGTAA	0.158
AACGTACC	-0.185
ACCATTCC	-0.0416
ACGGACAG	-0.0813
AACTCAGC	-0.0387
CGTAGGGA	0.0117
CAATGAAA	0.153
AGTAACCG	0.119
CGTTGGAA	-0.0227
AACATTGC	-0.1
CCTCCCCA	-0.171
AAGGCTAG	-0.0504
CGTTGGCC	-0.295
ACCCTGTA	-0.12

Sequence	PBM E-score
ACTGTACT	-0.183
ATAATAGG	0.152
ATCATGTC	0.213
CAGAGGGG	-0.339
CTCTATTA	0.0287
CGTTACAG	0.0192
GTTACACA	0.188
AGGGTTCA	-0.0295
CTATTTTA	0.216
ATCGTTAA	0.095
CCAACAAG	-0.0327
AGTGGTCC	-0.0852
CCTGGTAC	-0.0251
GTAATGTA	0.179
ACGAAGAT	0.0664
ACACTGTC	-0.15
AAGCACTC	-0.208
GCGGAGCA	-0.103
AATTTCAC	0.0969
ACTCGTCT	-0.018
ACATCTTA	0.126
CGCATAGC	-0.0786
GAGTGAGC	-0.0451
GGGAACAA	-0.0237
CGAGGGAA	-0.0805

Sequence	PBM E-score
CTATTGGC	-0.284
AGTCCGCG	-0.0191
AAGGTCAG	-0.256
CCCACGAC	-0.28
TCGGGGAA	0.0239
CGGGTTAG	-0.301
AATTGAGC	-0.0329
CCAACTCC	-0.00709
ATGTTGAC	0.294
GAGTCTAC	-0.129
CAGGGGGA	-0.382
GCTTCCCA	-0.237
CTATCAAC	0.0928
TTAATGAA	0.201
CTATGCTA	-0.00196
ATATCGAT	0.0207
AAAGCTTC	-0.172
GGACATCC	-0.274
CCTTGCGC	-0.158
CCTACACG	-0.249
ACAGCAGA	-0.0947
CCAAAGGG	-0.125
AAGTTAAC	0.181
CGTATGTC	0.0736
ACTATCTC	-0.00811

Sequence	PBM E-score
CCAATCCC	-0.239
CAACTCTC	-0.257
ATAAATTA	0.373
GTTGACGA	0.192
CACCATAC	-0.0478
ACCAGTCA	-0.0553
CAGTGCAA	0.0823
GTTTCTAA	0.121
CAAATTTG	0.0722
TACACCCA	-0.0761
GGCGTTTA	0.161
GTTTACTA	0.12
AAACCGCA	-0.236
GACCCTGA	-0.242
CATCTATC	-0.0227
TCGGGACA	-0.11
AGTAGGTG	-0.0209
CACGTTCA	-0.104
CCCGGTTC	-0.269
AGGACAAA	0.129
GCGCGATA	0.236
TGCAGAAA	0.214
ATTGAGTC	-0.00653
GTCTACGA	-0.16
AGTTGTCC	-0.0979

Sequence	PBM E-score
CGGAACGA	0.0755
GTCTAACA	-0.113
AAATTGCA	0.201
ACGGTGTC	-0.101
GACCGCTC	-0.117
CTCTCCAG	-0.382
ACATATGT	0.261
AGCTCCCC	-0.373
CGATCTGA	-0.0214
ACAGCGGC	-0.147
GATTCAGA	0.0256
CCCTACAG	-0.327
ATCTTCAC	0.0987
ACGCTTCA	-0.0976
AAACCCGT	0.0445
CCGGCTTA	-0.22
ATAACGAC	0.133
ACCAGACC	-0.0892
CCAACGAC	-0.122
GATTAATA	0.261
GGGGAATA	-0.101
TAAAACAA	0.131
